Test results as given in article PMC4336329 (PLoS ONE, 2015).
About 2,200 (0.71%) of roughly 310,000 compounds showed an effect of 50% or more. The effect is printed as a negative number. Some of the results follow. Where a SMILES comes first, the peptide text is derived from it. [ ]: non-standard residue; d: D form. The star is where a group is joined. Phe(4-Me) = Cc1ccc(C[CH](N)C(=O)O)cc1; Bz = O=C(c1ccccc1)*

Biological target: human ether-à-go-go-related gene (hERG) potassium channel (human, UniProt Q12809)
Test: primary screen, population patch clamp on CHO cells stably expressing hERG

Chain of human ether-à-go-go-related gene (hERG) potassium channel (Q12809 whole entry, looked up): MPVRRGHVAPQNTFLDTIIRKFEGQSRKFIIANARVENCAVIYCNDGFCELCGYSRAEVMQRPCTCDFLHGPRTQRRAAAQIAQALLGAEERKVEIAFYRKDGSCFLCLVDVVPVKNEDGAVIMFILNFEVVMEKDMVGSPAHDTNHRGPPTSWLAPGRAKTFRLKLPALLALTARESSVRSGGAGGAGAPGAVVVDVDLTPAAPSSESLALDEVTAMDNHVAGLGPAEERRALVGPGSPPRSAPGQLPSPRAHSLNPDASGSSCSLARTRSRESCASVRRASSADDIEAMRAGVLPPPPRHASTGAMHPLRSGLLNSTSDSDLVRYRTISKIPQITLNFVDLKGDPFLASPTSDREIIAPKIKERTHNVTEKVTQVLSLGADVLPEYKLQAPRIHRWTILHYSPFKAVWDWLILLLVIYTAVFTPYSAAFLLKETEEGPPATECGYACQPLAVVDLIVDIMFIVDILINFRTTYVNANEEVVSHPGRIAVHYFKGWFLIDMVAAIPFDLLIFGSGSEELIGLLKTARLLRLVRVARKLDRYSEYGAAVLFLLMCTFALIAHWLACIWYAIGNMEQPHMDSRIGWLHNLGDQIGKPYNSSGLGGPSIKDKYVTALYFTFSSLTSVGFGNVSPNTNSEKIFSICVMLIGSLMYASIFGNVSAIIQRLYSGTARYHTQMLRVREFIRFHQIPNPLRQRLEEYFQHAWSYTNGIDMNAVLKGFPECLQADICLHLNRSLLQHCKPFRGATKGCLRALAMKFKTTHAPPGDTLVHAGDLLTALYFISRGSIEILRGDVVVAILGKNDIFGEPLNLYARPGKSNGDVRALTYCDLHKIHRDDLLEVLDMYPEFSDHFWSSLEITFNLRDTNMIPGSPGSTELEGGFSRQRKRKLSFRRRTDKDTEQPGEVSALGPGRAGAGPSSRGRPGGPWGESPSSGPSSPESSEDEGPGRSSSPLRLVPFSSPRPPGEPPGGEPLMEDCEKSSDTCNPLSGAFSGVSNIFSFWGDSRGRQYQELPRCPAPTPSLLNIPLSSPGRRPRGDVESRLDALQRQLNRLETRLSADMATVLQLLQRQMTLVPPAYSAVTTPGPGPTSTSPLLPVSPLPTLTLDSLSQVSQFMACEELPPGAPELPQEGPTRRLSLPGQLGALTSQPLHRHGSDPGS

Compound | hERG current change (%, negative = inhibition) at 1uM [%]
COc1ccc(NC(=O)CSc2nc3ccccc3nc2N2CCOCC2)c(OC)c1 | 13.3
CC(OC(=O)c1oc2ccccc2c1CSC1CCCCC1)C(=O)NC(N)=O (stereo not drawn) | 9.98
CCOc1cccc(/C(O)=C2/C(=O)C(=O)N(CCOC)C2c2ccco2)c1 (stereo not drawn) | 8.52
O=C(CSc1nc2ccccc2[nH]1)N1CCCCC1 | -1.05
O=C(COn1nnc2ccc(Cl)cc21)Nc1ccc(F)cc1 | 12.9
CCN(CC)/C(Sc1ccccc1)=C(\C(Cl)=C(Cl)Cl)[N+](=O)[O-] | 11
C[n+]1ccccc1/C=N/O.[Cl-] | 13.4
CC1=C(C#N)C(=O)N(C2CCS(=O)(=O)C2)C(=O)/C1=C\c1ccc(C)o1 (stereo not drawn) | 10.4
CCOc1ccccc1OCC(=O)NC1CCCCC1 | -5.56
CSc1ncc2ncn(C3OC(CO)C(O)C3O)c2n1 (stereo not drawn) | 14.5
CCOC(=O)C1=C(C)NC(=NC)SC1c1ccccc1 (stereo not drawn) | 11.1
O=C(Nc1ccc(Cl)c([N+](=O)[O-])c1)c1ccc(NCCCN2CCOCC2)c([N+](=O)[O-])c1 | -1.88
COc1ccc(/C=C/C(=O)NCc2ccc(F)cc2)cc1S(=O)(=O)N1CCOCC1 | 3.16
CCCCCC(=O)c1ccc(O)cc1O | 13.5
O=C1CC(c2ccccc2)n2nc(NC(=O)C3CCCO3)nc2N1 (stereo not drawn) | -3.45
CCOc1cc2c(cc1/C=C(/C#N)c1ccc(C(=O)O)cc1)OCO2 | 12.9
CC(C)C(=O)Nc1cccc(-c2nc3ccccc3o2)c1 | 8.98
Cc1c(C)n(C)c2ccc(C(=O)NCCCN(C)C3CCCCC3)cc12 | -9.18
COc1ccc(N(CC(=O)Nc2ccc(OC)cc2OC)S(=O)(=O)c2ccccc2)cc1 | 6.3
Cc1nn(-c2ccccc2)c(N)c1N=Nc1ccc2ccccc2c1 | 7.52
CCN(Cc1cc2ccccc2[nH]c1=O)C(=O)C1CCCCC1 | -0.159
O=C(NCC1CC1)C1(C(F)(F)F)CC(CCCO)CCCO1 (stereo not drawn) | 20.8
O=C(OCc1cccc(C(F)(F)F)c1)c1cc(S(=O)(=O)N2CCOCC2)ccc1F | 3.15

Compound | hERG current change (%, negative = inhibition) at 1uM [%]
O=C(OCn1nnc2ccccc2c1=O)c1cccnc1 | 6.41
CC(=O)Nc1ccc(S(=O)(=O)NCC2CCC(C(=O)NC(C)c3ccc4c(c3)OCCO4)CC2)cc1 (stereo not drawn) | 12.2
CSc1ccc(Cl)c(C(=O)NCCOc2cc(C(C)C)ccc2C)c1 | 14.9
COc1cccc(-c2ccc3nnc(SCC(=O)N4CCCC4)n3n2)c1 | 4.55
COc1cc(/C=N/Nc2nncn2/N=C/c2ccc(O)c(OC)c2)ccc1O | 8.08
COc1ccc(N2CCN(C(=O)c3ccc(-n4nc(C)cc4C)cc3)CC2)cc1 | 3.15
CN(C(=O)COC(=O)c1cc(=O)[nH]c2ccccc12)C1CCCCC1 | 6.86
CCOc1c2ccc(C(=O)NC3CCCc4ccccc43)cc2nn1C (stereo not drawn) | 10
O=C(NCc1ccccn1)Nc1cccc(NC(=O)NCc2ccccn2)c1 | -1.83
O=C(Nc1c(C(=O)N2CCOCC2)cnn1-c1ccccc1)c1ccccc1 | -9.15
C[n+]1cccc2c(Br)ccc([O-])c21.O | 16.1
COc1cc2c(cc1OC)-c1nnc(C)n1C(C)(C)C2 | 6.66
CCOC(=O)n1c(SCC(=O)N(CC)CC)nc2ccccc21 | 8.17
Cc1cc(C)n(-c2cc(N3CCOCC3)nc(-c3ccccc3)n2)n1 | 3.04
C/C(=C\COc1cc(=O)[nH]c2ccccc12)CCC(O)C(C)(C)O (stereo not drawn) | 8.59
Cn1c(N)c(S(=O)(=O)N2CCN(C(=O)c3ccco3)CC2)c(=O)n(C)c1=O | 5.82
O=C(Nc1cccnc1)c1ccccc1NS(=O)(=O)c1ccc(F)cc1 | 5.12
CCc1ccc(NC(=O)C(C)n2nc(C)c([N+](=O)[O-])c2C)cc1 (stereo not drawn) | 10.8
O=c1[nH]c(O)c(C=NCCc2ccccc2)c(=O)[nH]1 | 17.1
Cc1ccc(CC(NC(=O)c2ccccc2)C(=O)N2CCCC2C(=O)O)cc1 (stereo not drawn) (Bz-[Phe(4-Me)]-Pro-OH; configuration not given here) | -4.66
Cc1ccoc1C(=O)Nc1cccc2ccccc12 | 11
CN(C)C(=O)COC(=O)c1cccnc1Nc1ccccc1F | 1.96
